Results from paper PMC4336329 (PLoS ONE, 2015).
About 14,000 (4.5%) of roughly 310,000 compounds showed an effect of 50% or more. Effects have a minus sign here. This is one part of the list.

target: human ether-à-go-go-related gene (hERG) potassium channel (human, UniProt Q12809); assay: primary screen, population patch clamp on CHO cells stably expressing hERG
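Also: peak tail current of the secondary pulse compared with the same well before compound.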

Chain of human ether-à-go-go-related gene (hERG) potassium channel (Q12809 whole entry, looked up): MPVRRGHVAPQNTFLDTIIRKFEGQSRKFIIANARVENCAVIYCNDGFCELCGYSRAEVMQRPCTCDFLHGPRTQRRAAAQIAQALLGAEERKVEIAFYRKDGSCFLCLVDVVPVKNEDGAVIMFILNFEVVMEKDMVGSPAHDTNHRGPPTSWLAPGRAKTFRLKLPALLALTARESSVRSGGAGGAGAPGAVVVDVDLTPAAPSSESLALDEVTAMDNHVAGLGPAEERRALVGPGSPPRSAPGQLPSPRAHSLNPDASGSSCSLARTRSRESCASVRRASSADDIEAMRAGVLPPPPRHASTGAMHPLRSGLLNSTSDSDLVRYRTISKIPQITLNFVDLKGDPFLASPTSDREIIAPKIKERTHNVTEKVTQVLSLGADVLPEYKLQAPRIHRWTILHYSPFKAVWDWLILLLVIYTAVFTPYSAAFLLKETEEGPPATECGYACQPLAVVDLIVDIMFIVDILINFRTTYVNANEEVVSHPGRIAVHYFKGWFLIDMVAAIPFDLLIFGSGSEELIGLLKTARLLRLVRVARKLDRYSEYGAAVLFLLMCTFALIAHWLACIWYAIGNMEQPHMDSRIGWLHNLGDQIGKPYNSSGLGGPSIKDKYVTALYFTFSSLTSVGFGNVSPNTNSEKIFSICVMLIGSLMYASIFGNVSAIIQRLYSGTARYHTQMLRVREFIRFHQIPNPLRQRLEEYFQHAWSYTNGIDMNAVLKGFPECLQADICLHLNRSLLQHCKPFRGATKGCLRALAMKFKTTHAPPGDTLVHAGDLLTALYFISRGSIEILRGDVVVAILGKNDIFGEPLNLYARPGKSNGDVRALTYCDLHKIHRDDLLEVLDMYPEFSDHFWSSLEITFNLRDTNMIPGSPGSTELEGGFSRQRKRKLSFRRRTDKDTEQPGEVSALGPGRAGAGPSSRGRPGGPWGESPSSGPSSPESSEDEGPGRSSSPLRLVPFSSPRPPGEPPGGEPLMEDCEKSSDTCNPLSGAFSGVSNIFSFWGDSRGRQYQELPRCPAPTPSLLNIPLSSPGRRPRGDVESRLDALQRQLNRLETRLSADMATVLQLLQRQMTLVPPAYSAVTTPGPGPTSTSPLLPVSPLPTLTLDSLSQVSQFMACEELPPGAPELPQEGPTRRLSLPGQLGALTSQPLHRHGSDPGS

SMILES | hERG current change (%, negative = inhibition) at 10uM [%]
CCOc1ccccc1N1CC(C(=O)N2CCOCC2)CC1=O (stereo not drawn) | 13.9
CC(NC(=O)CCn1c(=S)[nH]c2ccsc2c1=O)c1ccccc1 (stereo not drawn) | 9.87
Cc1cccc(NC(=O)/C(C#N)=C/c2ccc(Sc3ccccc3)o2)c1C | 8.77
CCNC(=O)N1CCCC(C(=O)c2ccc3cc(OC)ccc3c2)C1 (stereo not drawn) | -22.5
C=CCOc1cccc(/C=N/NC(=O)CN(c2cc(Cl)ccc2OC)S(=O)(=O)c2ccc(C)c([N+](=O)[O-])c2)c1 | 9.82
Cc1ccc(Nc2cc(=O)[nH]c(=O)[nH]2)cc1C | 6.01
N#C/C(=C\c1cn(CCOc2ccccc2)c2ccccc12)C(=O)NCc1ccco1 | -1.02
CCn1nnc(NC(=O)c2c(OC)cccc2OC)n1 | 7.73
CSC1=NCCN1C(=O)c1ccc(S(=O)(=O)N2CCCCC2)cc1 | 5.3
Cn1c(=O)[nH]c(=O)c2c1nc(N1CCCCCC1)n2CCOc1ccccc1 | -5.49
COc1cc2ccccc2cc1C(=O)N1CCCCC1 | -0.827
Cc1cc(=O)cc(C)n1-c1ccc(F)cc1F | 0.384
c1ccc(C(c2ccccc2)N2CCN(C(c3ccccn3)c3nnnn3C3CCCC3)CC2)cc1 (stereo not drawn) | 15.5
CCCCSc1n[nH]c(N)n1 | 14
CCOC(=O)C1C(=O)C=C(N2CCOCC2)CC1c1cccc(OC)c1 (stereo not drawn) | 7.18
CCOc1ccc(C(CCc2ccccc2)NC(=O)c2ccccc2F)cc1OCC (stereo not drawn) | 11.1
CN(Cc1cnn(C)c1)C(=O)c1cc(COc2c(F)cccc2F)on1 | 7.79
CCOC(=S)SCC(=O)Nc1nc(C)c(C)s1 | 2.61
Cc1ccc(-c2cc(C(F)(F)F)c(C#N)c(SCCC#N)n2)o1 | 4.81

SMILES | hERG current change (%, negative = inhibition) at 10uM [%]
CC(=O)Oc1cccc(NC(=O)c2ccc3c(c2)C(=O)N(CC(C)C)C3=O)c1 | 11.2
COc1ccc(Nc2nc(N)nc(CSC(=S)N3CCOCC3)n2)cc1 | -7.13
Cc1ccc(/C=C2\SC(=S)N(CCCC(=O)Nc3ccc(O)cc3)C2=O)cc1 | 3
CC1(C)CC(=O)C(C=NCCc2ccc(O)cc2)=C(O)C1 | 8.99
CCCCCNC(=O)c1cccc(S(=O)(=O)N2CC3(C)CC2CC(C)(C)C3)c1 (stereo not drawn) | -1.24
OCCCNc1ncnc2c1[nH]c1ccccc12 | 13.2
O=C(Cc1ccc(Cl)cc1)Nc1ccc(N2CCCC2)cc1 | 17.3
CCOc1ccc(N=C2SCCCN2C(=O)c2c(CC)noc2C)cc1 | -9.74
Cc1cc(=O)oc2cc(OCC(=O)N3CC[C@@]4(O)CCCC[C@H]4C3)ccc12 | 8.66
Cc1ccc(/C=N/NC(=O)C2COc3ccccc3O2)s1 (stereo not drawn) | -2.82
Cc1cc(-c2nnc(CCC(=O)NCC(C)c3ccccc3)o2)no1 (stereo not drawn) | 11.1
CC(=O)c1c(C)[nH]c(C(=O)OCC(=O)NCCC(C)C)c1C | 3.45
CCN(CC)S(=O)(=O)c1ccc(-c2nnc(SCC(=O)N3c4ccccc4CC3C)o2)cc1 (stereo not drawn) | -6.82
Cc1oc(S(=O)(=O)N2CCCCC2)cc1NC(=O)Nc1ccc(Cl)cc1 | 13.5
COc1ccc(NC(=O)CCN2C(=O)/C(=C/c3ccc4c(c3)OCO4)SC2=S)cc1 | 9.71
COc1ccccc1C(=O)Nc1ccnn1C1CCN(C(=O)c2cnsn2)CC1 | -62.2
O=C(CSCc1ccc(F)cc1)Nc1nc2c(s1)CCCC2 | -12.6
COc1ccc(N(C)C(=O)CCS(=O)(=O)c2cccc3nonc23)c(OC)c1 | 1.11
CCOC(=O)c1c(NC(=S)NC(=O)c2ccco2)sc2c1CCCC2 | 21.5

SMILES | hERG current change (%, negative = inhibition) at 10uM [%]
CCC(=O)Nc1ccc2c(c1)C(=O)N(C)C2=O | 12.2
CCCNC(=O)NC(=O)COC(=O)c1ccc(OC)c(S(=O)(=O)N2CCCc3ccccc32)c1 | -4.08
C[C@]12CCC(O)CC1=CCC1C2CC[C@]2(C)/C(=N\NC(N)=S)CCC12 (stereo partly drawn) | -24.1
O=C(NCc1ccc(F)cc1)Nc1ccccc1 | 19.2
CCCCCCCN1C(N(C)C)=NC[C@@H]1Cc1ccccc1 | -80.1
Cc1cccc(N(C(=O)c2snc(C(N)=O)c2N)C(C(=O)NCC2CCCO2)c2cccs2)c1 (stereo not drawn) | -16.3
Cc1ccc(OCC(O)CN2CCN(CC(O)COc3ccc(C)cc3Cl)CC2)c(Cl)c1 (stereo not drawn) | -24.3
c1ccc(-c2csc3ncnc(-n4cnc5ccccc54)c23)cc1 | -19.5
CCOCCc1nnc(NC(=O)CS(=O)(=O)Cc2ccccc2)s1 | 21.2
COc1ccc(CN2CCN(C(=O)c3ccco3)CC2)cc1 | -12.3
Cc1c(Br)c(C(=O)N2CCc3ccccc32)nn1C | 4.61
Cc1ccc(CN2CCC(C(=O)NCCC(C)C)CC2)o1.O=C(O)C(=O)O | 4.86
COc1ccc(N=Cc2c(O)n(-c3ccc(C)cc3)c(=O)[nH]c2=O)cc1 | 4.33
COc1ccc(-n2cc(-c3ccccc3)[nH]c2=S)cc1 | 8.53
CC1CCC(C(C)C)C(OCC(O)CNC(C)(C)C)C1.Cl (stereo not drawn) | -18.5
COc1ccc2nc(/C(C#N)=C\c3ccc(C(=O)O)cc3)[nH]c2c1 | 36.6
CSc1cccc(-n2cc(-c3ccc4c(c3)OCO4)[nH]c2=O)c1 | 0.191
O=C(NCc1cccs1)C1CC(c2ccc(Cl)c(Cl)c2)=NO1 (stereo not drawn) | 27.6
CCCCn1c(N)c(N(CCOC)C(=O)C2CCCN(C(=O)c3ccc(Cl)cc3)C2)c(=O)[nH]c1=O (stereo not drawn) | -5.18
